Measurements taken from PubChem BioAssay AID1466 (National Center for Advancing Translational Sciences (NCATS), 2008).
Values joined by “and” are separate entries in the source; they are usually repeats but may differ in a detail not shown here. Equal values may be shown once. About 10 (0.005%) of roughly 200,000 compounds were called active. The shares of active, inactive and inconclusive entries below differ from those in the screen. Calls follow the shape of the dose curve; as a rule, active = well fitted inhibition curve with a large enough effect; inconclusive = small, poorly fitted or top-dose-only effect, or effect the other way, or another doubt; inactive = no such curve, though single readings can be large or run the other way. Potencies of inconclusive entries are doubtful fits and often do not repeat.

What follows are molecules tested against Lysosomal alpha-glucosidase (Homo sapiens) (UniProt P10253) (assay: qHTS Assay for Inhibitors of Human alpha-Glucosidase as a Potential Chaperone Treatment of Pompe Disease). Conditions: purified human GAA, 4-MU-alpha-glucoside fluorescence; activity change, negative = inhibition: at 76.9 µM (top of the series) unless noted.
In short: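 Compounds are titrated up to 77 uM against 4 nM human enzyme. Substrate 4-methylumbelliferyl-alpha-D-pyranoside (400 uM) reacts 20 min at room temperature in pH 5.0 buffer; liberated 4-methylumbelliferone is read at 440 nm.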
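For activity change, negative = inhibition in this document: plate controls were uninhibited enzyme wells for no effect and no-enzyme background for full effect.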
Potency is read from the fitted curve at half-maximal effect; tags tell the direction and shape of the fitted curve.

| SMILES | Potency | activity change, negative = inhibition |
| --- | --- | --- |
| Cn1c2ccccc2c(=O)c2c(=O)n(C3CCCCC3)c(-c3cccs3)nc21 | inconclusive: 56.2 µM [inhibitor, single point] | – |
| CC(C)(C)NC(=O)COc1ccc(CNCc2cccs2)cc1 | inconclusive: 0.355 µM [activator, full curve, poor fit] | – |
| COc1ccccc1Oc1coc2c(CN(C)C)c(O)ccc2c1=O | inconclusive: 44.7 µM [activator, partial curve] | – |
| OCc1cn(-c2ccccc2)nc1-c1cccnc1 | inconclusive: 56.2 µM [inhibitor, single point] | – |
| CCC1(c2ccccc2)NC(=O)N(CC(=O)N2CCN(S(=O)(=O)c3ccccc3)CC2)C1=O (stereo not given) | inconclusive: 44.7 µM [inhibitor, single point] | – |
| COc1ccc(CC(=O)NCc2nnc(SCC(=O)c3ccc(OC)cc3)n2C)cc1 | – | inactive: 8.61% |
| CCOc1ccc(NC(=O)CC2C(=O)N(c3ccc(OC)cc3)C(=S)N2Cc2ccccn2)cc1 (stereo not given) | inconclusive: 20 µM [inhibitor, partial curve] | – |
| Cc1ccc(-n2c(=O)[nH]c3cc(C(=O)NC4CCN(Cc5ccccc5)CC4)ccc3c2=O)cc1 | inconclusive: 11.2 µM [activator, full curve, poor fit] | – |
| COc1ccc2[nH]c(=O)c(CN(C(=O)COc3ccccc3)C(C)C)cc2c1 | inconclusive: 20 µM [activator, partial curve, poor fit] | – |
| COc1cc(C2C(C(C)=O)=C(O)C(=O)N2c2ccc(Br)cn2)ccc1O (stereo not given) | – | inconclusive: 20.3% [activator] |
| O=C(NCc1cc(C(F)(F)F)cc(C(F)(F)F)c1)C12CN(Cc3ccccc3)CC1C(c1cccc([N+](=O)[O-])c1)=NO2 (stereo not given) | inconclusive: 11.2 µM [inhibitor, single point] | – |
| CCN1CCN(C(=O)c2cn(CCOC)c(=O)c3c2c2ccccc2n3C)CC1 | inconclusive: 35.5 µM [activator, partial curve] | – |
| CCOc1nc2ccccc2cc1/C=C/C(=O)O | inconclusive: 56.2 µM [activator, single point] | – |
| O=C(Cc1ccc(Cl)cc1Cl)OCC(=O)c1ccc[nH]1 | inconclusive: 56.2 µM [inhibitor, single point] | – |
| O=C(O)Cc1csc(-c2cccc(Oc3ccccc3)c2)n1 | inconclusive: 56.2 µM [inhibitor, single point] and inconclusive: 12.6 µM [inhibitor, partial curve] | – |
| Cc1ccccc1NS(=O)(=O)c1cc(C(=O)NCc2ccco2)ccc1C | inconclusive: 56.2 µM [inhibitor, single point] | – |
| C=C(C)Cn1c(SCC(=O)N/N=C/c2ccccc2)nc2ccccc2c1=O | inconclusive: 6.31 µM [inhibitor, single point] | – |
| Cc1ccc(-n2c(SCC(N)=O)nc3c(c2=O)C2(CCCC2)Cc2ccccc2-3)cc1 | – | inactive: 5.97% |
| CCOC(=O)C1CCCN(Cc2cn[nH]c2-c2ccc(F)cc2F)C1 (stereo not given) | inconclusive: 39.8 µM [activator, partial curve, poor fit] | – |
| O=c1[nH]nc(CNc2ccc(Cl)cc2Cl)c2ccccc12 | – | inconclusive: -16.3% [inhibitor] |

| SMILES | Potency | activity change, negative = inhibition |
| --- | --- | --- |
| CC(C)(C)C(=O)CN1C2=NCCN2c2ccccc21 | – | inconclusive: 16% [activator] |
| C=CCc1cccc(C=Nc2cc(Br)ccc2O)c1O | – | inactive: -5.34% |
| CC(C)NC(=O)COc1ccc2c(c1)C(=O)CC(C)(C)O2 | inconclusive: 50.1 µM [activator, single point] | – |
| CCOc1cc(C=O)ccc1OS(=O)(=O)c1ccc(NC(C)=O)cc1 | inconclusive: 4.47 µM [inhibitor, full curve] | – |
| O=C1Oc2ccccc2C2(O)C3CCCCCC3C12 (stereo not given) | inconclusive: 56.2 µM [inhibitor, single point] | – |
| CCCC12CN3CCN(CC(C3)/C1=N\NC(=O)c1ccc(C(C)(C)C)cc1)C2 | inconclusive: 1.12 µM [inhibitor, full curve, poor fit] | – |
| COc1cc(-c2nnc(-c3ccc(S(=O)(=O)c4ccccc4)cc3)o2)cc(OC)c1OC | inconclusive: 31.6 µM [activator, single point] | – |
| O=C(O)c1ccc2nc(-c3ccccc3)c(-c3ccccc3)nc2c1 | inconclusive: 35.5 µM [activator, partial curve] | – |
| N#Cc1ccsc1NC(=O)COC(=O)c1ccc(NC(N)=O)cc1 | inconclusive: 0.501 µM [activator, partial curve] | – |
| CCOC(=O)c1cc(-c2ccc(OC)cc2)nc2c1c(C)nn2CCC#N | – | inactive: 13.4% |
| CCOC(=O)c1c(NC(=O)c2cc(CC(C)C)on2)sc(C(C)=O)c1C | inconclusive: 0.158 µM [inhibitor, full curve, poor fit] | – |
| COc1ccc(/C=N/Nc2nc3ccccc3s2)cc1O | inconclusive: 11.2 µM [inhibitor, full curve] | – |
| CC(=O)Nc1cccc(OC(=O)c2ccoc2C)c1 | inconclusive: 3.55 µM [inhibitor, partial curve, poor fit] | – |
| O=C(CN1CCN(c2ccccc2)CC1)Nc1nnc(-c2ccccc2)s1 | – | inconclusive: -16.1% [inhibitor] |
| Cc1ccc(SCC(=O)Nc2cccc(NC(=O)c3ccco3)c2)cc1 | – | inconclusive: 5.84% [activator] |
| CCOC(=O)c1sc2nc(NC(=O)C3CC3)sc2c1C | inconclusive: 28.2 µM [activator, partial curve] | – |
| O=C1CC(N2CCc3ccccc32)C(=O)N1c1ccc(F)cc1 (stereo not given) | – | inconclusive: 15.1% [activator] |
| CS(=O)(=O)N(CC(=O)Nc1ccc(S(=O)(=O)N2CCCC2)cc1)c1ccccc1 | inconclusive: 44.7 µM [inhibitor, single point] | – |
| CCn1c(NC(=O)c2cccs2)c(-c2cccs2)c(=O)c2ccccc21 | inconclusive: 44.7 µM [inhibitor, partial curve] | – |
| O=S(=O)(Nc1cccc2cccnc12)c1ccc(S(=O)(=O)N2CCCC2)cc1 | – | inconclusive: -19.8% [inhibitor] |
